Test results: patent publication US20230000797A1, “COMPOSITIONS AND METHODS FOR TREATING MOTOR DISORDERS” (ARIZONA BOARD OF REGENTS ON BEHALF OF THE UNIVERSITY OF …, priority 2015, published 2023)

Legend:
[1] = tested on: unilaterally 6-OHDA-lesioned LID rats; conditions: literature (Flores et al., 2014; Paquette et al., 2010); cited from earlier work
[2] = tested on: unilaterally 6-OHDA-lesioned LID rats; test: L-DOPA-induced AIMs in the preclinical rat LID model (10 hr ketamine 'infusion' paradigm or acute injection); conditions: cohort #1

SMILES | ipsiversive turning behavior (worsening of the Parkinsonism) [1] | time before the baseline AIMs score was reached again ([2]; 10 mg/kg ketamine-'infusion') [days] | time before the baseline AIMs score level was reached again ([2]; 15 mg/kg ketamine-'infusion') [days]
C[C@]12N[C@H](Cc3ccccc31)c1ccccc12 [MK-801] | induce the ipsiversive turning behavior | – | –
CNC1(c2ccccc2Cl)CCCCC1=O (racemic) [ketamine, (RS)-2-(2-Chlorophenyl)-2-(methylamino)cyclohexanone] | – | 10 | 31
